Changes are numbered by the printed parent chain. Names and notes keep the numbering of the source. These are yes or no findings as the source states them, for the method shown. For some of these results: In cells and extracts the contact can be indirect. Some entries that bind do so weakly or less than the wild type. Sequences can lack the tags named with a protein. Each block holds one binder with its values, some of them ahead of it.
Experiments:
[1] = biological target: T1, BmGtsf1L‐eGFP W99A (Bombyx mori); test: co-IP; GFP-IP on extracts of BmN4 cells transfected with BmGtsf1L-eGFP full length, deletion variants or alanine mutants; HA-eGFP as control; Western blot of endogenous BmVreteno and BmAgo3
T1 sequence: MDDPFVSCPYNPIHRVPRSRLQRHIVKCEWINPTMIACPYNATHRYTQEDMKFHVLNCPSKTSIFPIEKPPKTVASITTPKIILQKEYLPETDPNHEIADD

[2] = biological target: T2, BmGtsf1L‐eGFP Y88A (Bombyx mori); test: as above
T2 sequence: T1 sequence with Y88A, A99W

[3] = biological target: T3, BmGtsf1L‐eGFP double point mutant (YW > AA) (Bombyx mori); test: as above
T3 sequence: T1 sequence with Y88A

[4] = biological target: T4, full length (FL) BmGtsf1L‐eGFP (Bombyx mori); test: as above
T4 sequence: T1 sequence with A99W

[5] = biological target: T5, HA‐BmGtsf1L‐eGFP (Bombyx mori); test: co-IP; GFP-Trap magnetic agarose or control beads, lysate of BmN4 cells stably expressing HA-BmGtsf1L-eGFP; also after dsRNA knock-down of luciferase, BmAgo3 or BmVreteno; IP-150 buffer, overnight 4°C; Western blot
T5 sequence: T1 sequence with A99W

[6] = biological target: T6, HA‐tagged BmGtsf1L (Bombyx mori); test: co-IP; anti-HA magnetic beads, lysate of BmN4 cells transiently transfected with HA-BmGtsf1L (with FLAG-tagged partners or alone); IP-150 buffer (150 mM KOAc, 0.1% Igepal), overnight 4°C; with or without RNase A/T1; Western blot
T6 sequence: T1 sequence with A99W

GST‐BmVreteno‐L = biological target: T7, GST‐BmVreteno‐L (Bombyx mori); test: condition: 10 μM of His‐BmGtsf1L with 5 μM of GST‐BmVreteno; pull-down; GSH pull-down: 5 μM GST-BmVreteno (or fragment, variant) on Glutathione Sepharose 4B with 10 μM His-BmGtsf1L, 2 h 4°C, PBS with 0.1% Triton-X100; SDS-PAGE, Coomassie (Fig 5G also anti-His Western blot); both purified
T7 construct: BmVreteno Long isoform, Bombyx mori; pGEX-6p vector, 3C site between GST and BmVreteno; the purified protein was associated with nucleic acids; also called GST‐3C‐BmVreteno; full‐length BmVreteno‐L; source: E. coli BL21 DE3 codon+, purified (GSTrap, gel filtration); not shown: GST, N-terminal, kept
T7 chain: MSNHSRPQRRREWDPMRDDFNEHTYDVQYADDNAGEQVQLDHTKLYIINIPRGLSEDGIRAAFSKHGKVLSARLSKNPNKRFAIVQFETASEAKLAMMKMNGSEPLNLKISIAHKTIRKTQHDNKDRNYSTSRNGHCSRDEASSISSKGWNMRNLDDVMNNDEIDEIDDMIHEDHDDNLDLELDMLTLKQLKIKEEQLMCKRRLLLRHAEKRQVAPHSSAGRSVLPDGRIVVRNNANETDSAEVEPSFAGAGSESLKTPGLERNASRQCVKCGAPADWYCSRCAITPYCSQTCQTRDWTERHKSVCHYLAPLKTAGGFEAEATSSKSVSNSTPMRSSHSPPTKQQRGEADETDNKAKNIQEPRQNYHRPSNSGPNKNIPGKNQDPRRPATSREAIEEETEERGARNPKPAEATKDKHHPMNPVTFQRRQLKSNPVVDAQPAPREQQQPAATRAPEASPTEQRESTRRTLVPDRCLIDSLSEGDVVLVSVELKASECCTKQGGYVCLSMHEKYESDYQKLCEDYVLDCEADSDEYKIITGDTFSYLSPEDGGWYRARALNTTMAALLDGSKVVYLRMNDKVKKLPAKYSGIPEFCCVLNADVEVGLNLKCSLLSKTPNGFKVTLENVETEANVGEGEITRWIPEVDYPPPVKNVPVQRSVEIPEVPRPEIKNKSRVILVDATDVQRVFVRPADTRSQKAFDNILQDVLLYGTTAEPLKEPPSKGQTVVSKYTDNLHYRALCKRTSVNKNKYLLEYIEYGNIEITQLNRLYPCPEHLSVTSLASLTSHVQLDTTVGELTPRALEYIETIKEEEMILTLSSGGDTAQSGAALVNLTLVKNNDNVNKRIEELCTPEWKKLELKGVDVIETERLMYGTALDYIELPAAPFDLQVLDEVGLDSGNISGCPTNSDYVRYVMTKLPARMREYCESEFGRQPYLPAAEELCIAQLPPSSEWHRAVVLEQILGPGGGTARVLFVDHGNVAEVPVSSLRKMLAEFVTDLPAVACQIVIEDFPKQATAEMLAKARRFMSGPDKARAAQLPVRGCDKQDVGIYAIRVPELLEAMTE

binding [1]: binds
binding [2]: binds
binding [3]: binds
binding [4]: binds
binding [5]: binds
binding [6]: binds
B1: endogenous BmAgo3 (protein, UniProt A9ZSZ2 1-926)
chain: MADPGKGRGRSLALLQALKKSQMMDSPSQSESQSPESTPEQSTAPSTIASATPSTSGVSIGGRGRAAALMLAKMQQKPGSTTPAIFVPPSSTSAPTAGTGRGFKLLQNLQASQKASSQIASSQVTSSAQSDIKDLTEKMSETSVSAQASSVAKNKYFREVKDTPPVVKKGETGVPIEVTCNYIYLNFKENIVFEYEVKFEPDQDYKHLRFKLLNEHIEHFKEKTFDGTTLYVPHELPDAVRNLVSTNPYDQSKVNVSIIFRRTRRLSEMIHIYNVMFKCIMKDLKLIRFGRQHYNEHAAIQIPQHKLEVWPGYVTAVDEYEGGLMLTLDSTHRVLRTQTVLSLIKEVVQTEGANWKRKMTDILIGASVMTTYNKKLFRVDTIDDKMSPRSTFEKTEKGETVQISFIDYYKKNYGIEIMDWDQPLLISRDTKRMPGSDTPTDFMICLIPELCQLTGLTDDQRSNFRLMKDVATYTRITPNQRHAAFKKYIESVMKNETAKSRLAGWGLSIAPETVNLTARTLPPETLYFGDNVRVPGKPNAEWNSEVTKHSVMQAVDIMRWVLLFTQRDKQVAMDFLSTLKRNCRPMGIMVSDAELVPLANDRTDTYVLALKKCITSSVQLVVAICSTKRDDRYAAIKKVCCADNPVPSQVINARTLMNTNKIRSITQKILLQLNCKLGGTLWSISIPFKSAMIVGIDSYHDPSRRNRSVCSFVASYNQSMTLWYSKVIFQEKGQEIVDGLKCCLVDALTHYLRSNGQLPDRIIIYRDGVGDGQLKLLQQYEIPQMKICFTILGSNYQPTLTYVVVQKRINTRIFLKSRDGYDNPNPGTVVDHCITRRDWYDFLIVSQKVTQGTVTPTHYVVVYDDSGITPDQCQRLTYKMCHLYYNWPGTVRVPAPCQYAHKLSYLVGQCVHAQPSDVLVDKLFFL

binding (GST‐BmVreteno‐L): no binding
B2: His‐BmGtsf1L‐W99A (protein)
chain: T1 sequence
